Laboratory results as given in patent publication US20230086210A1 (Hoffmann-La Roche, published 2023).

Columns and labels:
[1] = biological target: human 4-1BB on Jurkat-hu4-1BB-NFκB-luc2 reporter cells (human, UniProt Q07011 24-255); experiment: cell-based or functional assay; set-up: unit not given beside the values
[2] = biological target: T1, human PD-L1 on MKN45-huPD-L1 cells (human, UniProt Q9NZQ7); experiment: flow cytometry on MKN45-huPD-L1 cells, area under the binding curve; set-up: unit not given beside the values
T1 construct: The entry is the complete precursor; also called MKN45-PD-L1; human PD-L1-expressing MKN45 cells
T1 sequence (Q9NZQ7 19-290 limits assumed): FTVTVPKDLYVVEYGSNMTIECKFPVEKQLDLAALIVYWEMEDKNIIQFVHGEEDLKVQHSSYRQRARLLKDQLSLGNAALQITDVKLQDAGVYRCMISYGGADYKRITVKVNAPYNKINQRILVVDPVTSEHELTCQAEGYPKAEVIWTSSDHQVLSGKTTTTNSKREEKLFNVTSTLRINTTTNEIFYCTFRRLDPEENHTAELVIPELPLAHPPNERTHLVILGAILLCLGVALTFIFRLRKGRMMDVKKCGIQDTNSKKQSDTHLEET

UniProt Q07011, sequence (Q07011 24-255): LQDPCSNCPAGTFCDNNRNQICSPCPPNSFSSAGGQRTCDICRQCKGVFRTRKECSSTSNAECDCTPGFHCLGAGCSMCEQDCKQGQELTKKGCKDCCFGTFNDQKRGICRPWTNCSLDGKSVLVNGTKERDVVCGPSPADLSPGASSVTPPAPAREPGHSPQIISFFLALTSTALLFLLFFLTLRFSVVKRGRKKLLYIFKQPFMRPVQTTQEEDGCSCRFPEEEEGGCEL

AUC of NFκB-activation-induced Luciferase activity curve [1]: 1850
AUC [2]: 387
B1: DP47-4-1BBL (untargeted control molecule DP47 split trimeric 4-1BB ligand Fc (kih) fusion antigen binding molecule) (Fc fusion)
chain 1: REGPELSPDDPAGLLDLRQGMFAQLVAQNVLLIDGPLSWYSDPGLAGVSLTGGLSYKEDTKELVVAKAGVYYVFFQLELRRVVAGEGSGSVSLALHLQPLRSAAGAAALALTVDLPPASSEARNSAFGFQGRLLHLSAGQRLGVHLHTEARARHAWQLTQGATVLGLFRVTPEIPAGLGGGGSGGGGSREGPELSPDDPAGLLDLRQGMFAQLVAQNVLLIDGPLSWYSDPGLAGVSLTGGLSYKEDTKELVVAKAGVYYVFFQLELRRVVAGEGSGSVSLALHLQPLRSAAGAAALALTVDLPPASSEARNSAFGFQGRLLHLSAGQRLGVHLHTEARARHAWQLTQGATVLGLFRVTPEIPAGLGGGGSGGGGSRTVAAPSVFIFPPSDRKLKSGTASVVCLLNNFYPREAKVQWKVDNALQSGNSQESVTEQDSKDSTYSLSSTLTLSKADYEKHKVYACEVTHQGLSSPVTKSFNRGE[sequence of human IgG1 Fc with changes not given]
chain 2: REGPELSPDDPAGLLDLRQGMFAQLVAQNVLLIDGPLSWYSDPGLAGVSLTGGLSYKEDTKELVVAKAGVYYVFFQLELRRVVAGEGSGSVSLALHLQPLRSAAGAAALALTVDLPPASSEARNSAFGFQGRLLHLSAGQRLGVHLHTEARARHAWQLTQGATVLGLFRVTPEIPAGLGGGGSGGGGSASTKGPSVFPLAPSSKSTSGGTAALGCLVEDYFPEPVTVSWNSGALTSGVHTFPAVLQSSGLYSLSSVVTVPSSSLGTQTYICNVNHKPSNTKVDEKVEPKSC
heavy: [sequence of about 100 residues not given]GSGFDYWGQGTLVTVSSASTKGPSVFPLAPSSKSTSGGTAALGCLVKDYFPEPVTVSWNSGALTSGVHTFPAVLQSSGLYSLSSVVTVPSSSLGTQTYICNVNHKPSNTKVDKKVEPKSCDKTHTCPPCPAPEAAGGPSVFLFPPKPKDTLMISRTPEVTCVVVDVSHEDPEVKFNWYVDGVEVHNAKTKPREEQYNSTYRVVSVLTVLHQDWLNGKEYKCKVSNKALGAPIEKTISKAKGQPREPQVCTLPPSRDELTKNQVSLSCAVKGFYPSDIAVEWESNGQPENNYKTTPPVLDSDGSFFLVSKLTVDKSRWQQGNVFSCSVMHEALHNHYTQKSLSLSP
light: [sequence of about 100 residues not given][sequence of about 100 residues not given]
notes: Non-PD-L1-targeted control with the same split trimeric 4-1BBL; also called untargeted control DP47-4-1BBL
